# Hit rate of the full screen: of about 2,300 compounds, about 330 (14%) showed activity.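 How the source made its calls: active = median modified Z-score above 1.96; inactive = 1.96 or below.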 Only a part is listed here, and it is no random draw.
# Tested on: HepG2 Srxn1-GFP reporter cells (+30 nM CDDO-Me)
# Test: Srxn1-GFP intensity median modified Z-score relative to plate median; higher = stronger NRF2 / oxidative stress reporter activation, active = hit call of the paper
# Conditions: 10 µM; exposure time: 24h
# In short: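 The per-plate modified Z-score of GFP intensity, taken as a median across replicates, is what each value represents. Three replicate plates of HepG2 Srxn1-GFP BAC reporter cells were exposed for 24 h to an NRF2 activator at 30 nM combined with compound at 10 μM (≤0.1% DMSO). Cytoplasmic GFP per cell was read from confocal images, excluding any with under 100 cells, and scaling used 1.4826 × median absolute deviation.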
row,Compound,Srxn1-GFP intensity median modified Z-score
1,OC(CCN1CCCCC1)(c1ccccc1)c1ccccc1 [euspeclibcmpd1117],inactive: -0.61
2,CC1(C)O[C@@H]2[C@@H](CO[C@@]3(COS(N)(=O)=O)OC(C)(C)O[C@@H]23)O1 [euspeclibcmpd870],inactive: 0.206
3,CCN(CC)CCNC(=O)c1cc(Br)c(N)cc1OC [euspeclibcmpd1122],inactive: 0
4,CCCCc1c(O)n(-c2ccccc2)n(-c2ccccc2)c1=O [euspeclibcmpd235],inactive: 0.115
5,CC=C(C1=CC(=O)C=CC1=O)c1ccccc1 [euspeclibcmpd1643],inactive: 1.51
6,CC(O)(P(=O)(O)O)P(=O)(O)O [euspeclibcmpd2239],inactive: 0.261
7,CCC1NC(=O)c2cc(S(N)(=O)=O)c(Cl)cc2N1 (stereo unspecified) [euspeclibcmpd628],inactive: -0.198
8,CCCCOc1ccc(CC(O)=NO)cc1 [euspeclibcmpd1071],inactive: 1.55
9,Cc1cnc(C(=O)NCCc2ccc(S(=O)(=O)NC(=O)NC3CCCCC3)cc2)cn1 [euspeclibcmpd782],inactive: 0.535
10,NC(=O)COC(=O)c1ccccc1Nc1cccc(C(F)(F)F)c1,inactive: 1.26
11,CN1CCC(=C2c3ccccc3CCc3sccc32)CC1 [euspeclibcmpd488],inactive: 0.0303
12,CCN(CC)CCCC(C)N=c1c2ccc(Cl)cc2[nH]c2ccc(OC)cc12 (stereo unspecified) [euspeclibcmpd261],active: 19.2
13,CN1CCOC(c2ccccc2)c2ccccc2C1 (stereo unspecified) [euspeclibcmpd394],inactive: 0.156
14,CCCCNc1ccc(C(=O)OCCN(C)C)cc1 [euspeclibcmpd287],inactive: -0.0522
15,COc1cc2occ(-c3ccccc3)c(=O)c2c(OC)c1C [euspeclibcmpd2367],active: 3.02
16,CC1(C)CC[C@]2(C(=O)O)CC[C@]3(C)C(=CCC4[C@@]5(C)CC[C@@H](O)C(C)(C)C5CC[C@]43C)C2C1 (stereo partly specified) [euspeclibcmpd1603],active: 4.09
17,COc1c2ccoc2cc2oc(=O)ccc12 [euspeclibcmpd1016],inactive: -0.217
18,COC(=O)C1=C(C)N=C(C)C(C(=O)OCCN2CCN(C(c3ccccc3)c3ccccc3)CC2)C1c1cccc([N+](=O)[O-])c1 (stereo unspecified) [euspeclibcmpd869],active: 5.13
19,CN(C)CCOC(c1ccc(Cl)cc1)c1ccccn1 (stereo unspecified) [euspeclibcmpd45],inactive: 0.615
20,Cc1ccccc1C(OCCN(C)C)c1ccccc1 (stereo unspecified) [euspeclibcmpd219],inactive: -0.229
21,CCOC(=O)C1=CC(OC(CC)CC)[C@H](NC(C)=O)[C@@H](N)C1 (stereo partly specified) [euspeclibcmpd2394],inactive: -0.535
